Source: the supplement of paper PMC4604168 (melanoma cell lines)
The other results are listed elsewhere or left out. Repeats are few or missing, and single values can be far off.

The compounds below were run on IPC-298 (assay: cell count relative to DMSO control; melanoma cells; higher = more viable cells). Settings: library dose: low library concentration; 72 h.
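Further: cell number obtained by counting DAPI-stained nuclei in high-throughput microscope images with image analysis software, screen run in 1,536-well plates.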

Q: How did the cell count turn out when CN(c1ncccc1CNc1nc(Nc2ccc3c(c2)CC(=O)N3)ncc1C(F)(F)F)S(C)(=O)=O + COc1ccc2c(c1)CCC1C2CCC2(C)C(NCCCCCCN3C(=O)C=CC3=O)CCC12 [U73122] (first compound 0.08 µM, partner dose 0.4 µM) was run?
A: 100%

Q: With CCCS(=O)(=O)Nc1ccc(F)c(C(=O)c2c[nH]c3ncc(Cl)cc23)c1F + CCCCCCCCCCCC1=C(O)C(=O)C=C(O)C1=O [Embelin] (first compound 0.08 µM, partner dose 1.2 µM) as the compound, how does the cell count read?
A: 90.8%

Q: With CN(c1ncccc1CNc1nc(Nc2ccc3c(c2)CC(=O)N3)ncc1C(F)(F)F)S(C)(=O)=O + Oc1nc(-c2ccc(C(F)(F)F)cc2)nc2c1CSCC2 [XAV939] (first compound 0.08 µM, partner dose 2 µM) as the compound, how does the cell count read?
A: 101%

Q: Which cell count does the source give for NC1(c2ccc(-c3nc4ccn5c(=O)[nH]nc5c4cc3-c3ccccc3)cc2)CCC1 + COc1ccc2c(c1)CCC1C2CCC2(C)C(NCCCCCCN3C(=O)C=CC3=O)CCC12 [U73122] (first compound 0.4 µM, partner dose 0.4 µM) here?
A: 90.3%

Q: How did the cell count turn out when C=C(c1ccc(C(=O)O)cc1)c1cc2c(cc1C)C(C)(C)CCC2(C)C [Bexarotene] + O=C1NC(=O)/C(=C/c2ccc(-c3ccc(F)cc3O)o2)S1 [AS252424] (first compound 2 µM, partner dose 1 µM) was run?
A: 93.9%

Q: How did the cell count turn out when CN(c1ncccc1CNc1nc(Nc2ccc3c(c2)CC(=O)N3)ncc1C(F)(F)F)S(C)(=O)=O + COc1cc(N2CCC(N3CCN(C)CC3)CC2)ccc1Nc1ncc(Cl)c(Nc2ccccc2S(=O)(=O)C(C)C)n1 [NVP-TAE684] (first compound 0.08 µM, partner dose 0.08 µM) was run?
A: 107%

Q: With CN(c1ncccc1CNc1nc(Nc2ccc3c(c2)CC(=O)N3)ncc1C(F)(F)F)S(C)(=O)=O + O=c1cc(-c2cccc3c2Sc2ccccc2S3)oc(N2CCOCC2)c1 [KU55933] (first compound 0.08 µM, partner dose 1 µM) as the compound, how does the cell count read?
A: 96.6%

Q: How did the cell count turn out when CN(c1ncccc1CNc1nc(Nc2ccc3c(c2)CC(=O)N3)ncc1C(F)(F)F)S(C)(=O)=O + N#Cc1c(O)c2c(-c3ccc(-c4ccccc4O)cc3)csc2[nH]c1=O [A769662] (first compound 0.08 µM, partner dose 2 µM) was run?
A: 105%

Q: For CCCS(=O)(=O)Nc1ccc(F)c(C(=O)c2c[nH]c3ncc(Cl)cc23)c1F + Oc1cc(-c2nc(-c3ccccc3)[nH]c2-c2ccncc2)ccc1Cl [L779450] (first compound 0.08 µM, partner dose 0.2 µM), which cell count is on record?
A: 83%

Q: With NC1(c2ccc(-c3nc4ccn5c(=O)[nH]nc5c4cc3-c3ccccc3)cc2)CCC1 + O=C(O)C(=O)Nc1sc2c(c1C(=O)O)CCNC2 [TCS401] (first compound 0.4 µM, partner dose 1.66667 µM) as the compound, how does the cell count read?
A: 92.4%

Q: How did the cell count turn out when CN(c1ncccc1CNc1nc(Nc2ccc3c(c2)CC(=O)N3)ncc1C(F)(F)F)S(C)(=O)=O + Cn1cc(/C=C2\C(=O)Nc3cccnc32)c2ccccc21 [GW441756] (first compound 0.08 µM, partner dose 0.4 µM) was run?
A: 95%

Q: With CS(=O)(=O)c1ccc(C(=O)Nc2ccc(Cl)c(-c3ccccn3)c2)c(Cl)c1 [vismodegib] + COc1cc2ncnc(Nc3ccc(Oc4ccccc4)cc3)c2cc1OC [SrcI1] (first compound 1 µM, partner dose 2 µM) as the compound, how does the cell count read?
A: 92.1%

Q: How did the cell count turn out when NC1(c2ccc(-c3nc4ccn5c(=O)[nH]nc5c4cc3-c3ccccc3)cc2)CCC1 + COc1ccc(-c2ccc3c(N4CCOCC4)nc(N4C[C@@H](C)O[C@@H](C)C4)nc3n2)cc1CO [KU0063794] (first compound 0.4 µM, partner dose 0.02 µM) was run?
A: 94.1%

Q: Which cell count does the source give for CN(c1ncccc1CNc1nc(Nc2ccc3c(c2)CC(=O)N3)ncc1C(F)(F)F)S(C)(=O)=O + O=C1NC(=O)/C(=C/c2ccc(-c3ccc(F)cc3O)o2)S1 [AS252424] (first compound 0.08 µM, partner dose 1 µM) here?
A: 95.6%

Q: How did the cell count turn out when CS(=O)(=O)c1ccc(C(=O)Nc2ccc(Cl)c(-c3ccccn3)c2)c(Cl)c1 [vismodegib] + COc1ccc(COc2ccc(Cc3cnc(N)nc3N)cc2OC)cc1 [GW2580] (first compound 1 µM, partner dose 1 µM) was run?
A: 102%
